target: CtermHisTag-mEGFR Triple Mutant (R797S, L858R, T790M) (Homo sapiens, UniProt P00533, C797S/L858R/T790M); assay: TR-FRET probe displacement, EGFR triple mutant; conditions: 1.25 nM EGFR, 100 nM probe, 30 mins room temperature

`C#Cc1cc(=O)n([C@H]2CC[C@@H](NC(=O)CC)CC2)c2nc(Nc3ccc(N4CCN(C)CC4)cc3)ncc12` [Example 81, N-[(1s,4s)-4-(5-Ethynyl-2-{[4-(4-methylpiperazin-1-yl)phenyl]amino}-7-oxopyrido[2,3-d]pyrimidin-8-yl)cyclohexyl]propanamide] and `C#Cc1cc(=O)n([C@H]2CC[C@@H](NC(=O)CC(=O)NC)CC2)c2nc(Nc3ccc(N4CCN(C)CC4)cc3)ncc12` [Example 94, N-Methyl-N′-[(1s,4s)-4-(5-ethynyl-2-{[4-(4-methylpiperazin-1-yl)phenyl]amino}-7-oxopyrido[2,3-d]pyrimidin-8-yl)cyclohexyl]propanediamide] cannot be ordered by IC50: < 20 nM for the first, < 20 nM for the second.

First: C=Cc1cc(=O)n(-c2ccccc2OC)c2nc(Nc3ccccc3OC)ncc12 [Example 153, 8-(2-Methoxyphenyl)-2-((2-methoxyphenyl)amino)-5-vinylpyrido[2,3-d]pyrimidin-7(8H)-one]
Second: C=Cc1c(C#N)c(=O)n(-c2ccc(OC)cc2OC)c2nc(Nc3ccccc3OC)ncc12 [Example 160, 8-(2,4-dimethoxyphenyl)-2-((2-methoxyphenyl)amino)-7-oxo-5-vinyl-7,8-dihydropyrido[2,3-d]pyrimidine-6-carbonitrile]
The IC50 of the first is higher: 1000 to 50000 nM for the first, 20 to 100 nM for the second. The second is the more potent here.

First: C#Cc1cc(=O)n2c3nc(ncc13)Nc1ccc(N3CCN(C)CC3)c(c1)COCCC2 [Example 196, 1^5-Ethynyl-34-(4-methylpiperazin-1-yl)-1^7, 1^8-dihydro-5-oxa-2-aza-1(2,8)-pyrido[2,3-d]pyrimidina-3(1,3)-benzenacyclooctaphan-1^7-one]
Second: C#Cc1cc(=O)n2c3nc(ncc13)Nc1ccc(N3CCN(C)CC3)c(c1)CCOCC2 [Example 240, 1^5-Ethynyl-3^4-(4-methylpiperazin-1-yl)-1^7,1^8-dihydro-6-oxa-2-aza-1(2,8)-pyrido[2,3-d]pyrimidina-3(1,3)-benzenacyclooctaphan-1^7-one]
The IC50 of the first is higher: 1000 to 50000 nM for the first, < 20 nM for the second. The second is the more potent here.

`C#Cc1cc(=O)n(C2CCCCC2)c2nc(Nc3ccc(N4CCN(C)CC4)cc3)ncc12` [Example 68, 8-Cyclohexyl-5-ethynyl-2-((4-(4-methylpiperazin-1-yl)phenyl)amino)pyrido[2,3-d]pyrimidin-7(8H)-one] and `C#Cc1cc(=O)n(C2CCCC2)c2nc(Nc3ccc(N4CCN(C)CC4)cc3)ncc12` [Example 78, 8-cyclopentyl-5-ethynyl-2-((4-(4-methylpiperazin-1-yl)phenyl)amino)pyrido[2,3-d]pyrimidin-7(8H)-one] cannot be ordered by IC50: < 20 nM for the first, < 20 nM for the second.

`C=Cc1cc(=O)n(-c2ccc(OC)cc2OC)c2nc(Nc3ccc(N(C)CCN(C)C)cc3)ncc12` [Example 155, 8-(2,4-dimethoxyphenyl)-2-[(4-{[2-(dimethylamino)ethyl](methyl)amino}phenyl)amino]-5-ethenylpyrido[2,3-d]pyrimidin-7-one] and `C=Cc1c(-c2c(Cl)cccc2Cl)c(=O)n(C)c2nc(Nc3ccc(N(C)CCN(C)C)cc3)ncc12` [Example 167, 6-(2,6-dichlorophenyl)-2-[(4-{[2-(dimethylamino)ethyl](methyl)amino}phenyl)amino]-5-ethenyl-8-methylpyrido[2,3-d]pyrimidin-7-one] fall in the same range of IC50: 100 to 1000 nM for the first, 100 to 1000 nM for the second.

First: C#Cc1cc(=O)n(-c2ccc(N)cc2)c2nc(Nc3ccccc3OC)ncc12 [Example 61, 8-(4-Aminophenyl)-5-ethynyl-2-((2-methoxyphenyl)amino)pyrido[2,3-d]pyrimidin-7(8H)-one]
Second: C#Cc1cc(=O)n(-c2cccc([N+](=O)[O-])c2)c2nc(Nc3ccccc3OC)ncc12 [Example 54, 5-Ethynyl-2-((2-methoxyphenyl)amino)-8-(3-nitrophenyl)pyrido[2,3-d]pyrimidin-7(8H)-one]
The IC50 of the first is lower: 20 to 100 nM for the first, 100 to 1000 nM for the second. The first is the more potent here.

`C#Cc1cc(=O)n(-c2ccccc2)c2nc(Nc3ccc(N(C)CCN(C)C)c(C)c3)ncc12` [Example 32, 2-[(4-{[2-(Dimethylamino)ethyl](methyl)amino}-3-methylphenyl)amino]-5-ethynyl-8-phenylpyrido[2,3-d]pyrimidin-7-one] and `C#Cc1cc(=O)n(-c2ccccc2)c2nc(Nc3ccc(N4CCN(C)CC4)c(C)c3)ncc12` [Example 12, 5-Ethynyl-2-{[3-methyl-4-(4-methylpiperazin-1-yl)phenyl]amino}-8-phenylpyrido[2,3-d]pyrimidin-7-one] cannot be ordered by IC50: < 20 nM for the first, < 20 nM for the second.

First: C#Cc1cc(=O)n2c3nc(ncc13)Nc1ccc(N3CCN(C(C)C)CC3)c(c1)NC(=O)CCC2 [Example 235, 1^5-Ethynyl-3^4-(4-isopropylpiperazin-1-yl)-1^7,1^8-dihydro-2,4-diaza-1(2,8)-pyrido[2,3-d]pyrimidina-3(1,3)-benzenacyclooctaphane-1^7,5-dione]
Second: C#Cc1cc(=O)n2c3nc(ncc13)Nc1ccc(N3CCN(C)CC3)c(c1)NCCCC2 [Example 198, 1^5-Ethynyl-3^4-(4-methylpiperazin-1-yl)-1^7, 1^8-dihydro-2,4-diaza-1(2,8)-pyrido[2,3-d]pyrimidina-3(1,3)-benzenacyclooctaphan-1^7-one]
The IC50 of the first is lower: < 20 nM for the first, 100 to 1000 nM for the second. The first is the more potent here.

First: C#Cc1cc(=O)n(C2CCCC2)c2nc(Nc3cccc(CN4CC(CS(C)(=O)=O)C4)c3)ncc12 [Example 181]
Second: C#Cc1cc(=O)n(C2CCCC2)c2nc(Nc3ccccc3N3CCCC(CS(C)(=O)=O)C3)ncc12 (stereo not drawn) [Example 202, 8-Cyclopentyl-5-ethynyl-2-({2-[3-(methanesulfonylmethyl)piperidin-1-yl]phenyl}amino)pyrido[2,3-d]pyrimidin-7-one]
The IC50 of the first is lower: 100 to 1000 nM for the first, 1000 to 50000 nM for the second.

First: C=Cc1c(-c2ccccc2Cl)c(=O)n(C)c2nc(NCCCCN3CCN(C)CC3)ncc12 [Example 174, 6-(2-chlorophenyl)-8-methyl-2-((4-(4-methylpiperazin-1-yl)butyl)amino)-5-vinylpyrido[2,3-d]pyrimidin-7(8H)-one]
Second: C=Cc1c(-c2ccccc2Cl)c(=O)n(C)c2nc(Nc3ccc(N4CCN(C)CC4)cc3OC)ncc12 [Example 170, 6-(2-chlorophenyl)-5-ethenyl-2-{[2-methoxy-4-(4-methylpiperazin-1-yl)phenyl]amino}-8-methylpyrido[2,3-d]pyrimidin-7-one]
The IC50 of the first is higher: 1000 to 50000 nM for the first, 100 to 1000 nM for the second. The second is the more potent here.

First: C#Cc1c(-c2ccccc2Cl)c(=O)n(C)c2nc(Nc3ccc(N4CCN(C)CC4)cc3OC)ncc12 [Example 127, 6-(2-chlorophenyl)-5-ethynyl-2-{[2-methoxy-4-(4-methylpiperazin-1-yl)phenyl]amino}-8-methylpyrido[2,3-d]pyrimidin-7-one]
Second: C#Cc1c(-c2ccccc2Cl)c(=O)n(C)c2nc(Nc3ccccc3OC)ncc12 [Example 123, 6-(2-chlorophenyl)-5-ethynyl-2-[(2-methoxyphenyl)amino]-8-methylpyrido[2,3-d]pyrimidin-7-one]
The IC50 of the first is lower: < 20 nM for the first, 100 to 1000 nM for the second.

`C#Cc1c(-c2ccccc2Cl)c(=O)n(C)c2nc(Nc3ccc(OCCN(C)C)cc3)ncc12` [Example 129, 6-(2-chlorophenyl)-2-({4-[2-(dimethylamino)ethoxy]phenyl}amino)-5-ethynyl-8-methylpyrido[2,3-d]pyrimidin-7-one] and `C#Cc1c(-c2cc(F)ccc2Cl)c(=O)n(C)c2nc(Nc3ccc(N(C)CCN(C)C)cc3)ncc12` [Example 137, 6-(2-chloro-5-fluorophenyl)-2-[(4-{[2-(dimethylamino)ethyl](methyl)amino}phenyl)amino]-5-ethynyl-8-methylpyrido[2,3-d]pyrimidin-7-one] cannot be ordered by IC50: < 20 nM for the first, < 20 nM for the second.

First: C#Cc1cc(=O)n2c3nc(ncc13)Nc1ccc(N3CCN(C)CC3)c(c1)CCNC(=O)C2 [Example 227, 1^5-Ethynyl-3^4-(4-Methylpiperazin-1-yl)-1^7,1^8-dihydro-2,6-diaza-1(2,8)-pyrido[2,3-d]pyrimidina-3(1,3)-benzenacyclooctaphane-1^7,7-dione]
Second: C#Cc1cc(=O)n2c3nc(ncc13)Nc1ccc(N3CCN(C)CC3)c(c1)C(=O)NCCC2 [Example 224, 1^5-ethynyl-3^4-(4-methylpiperazin-1-yl)-1^7,1^8-dihydro-2,5-diaza-1(2,8)-pyrido[2,3-d]pyrimidina-3(1,3)-benzenacyclooctaphane-1^7,4-dione]
The IC50 of the first is lower: 100 to 1000 nM for the first, 1000 to 50000 nM for the second. The first is the more potent here.

First: C#Cc1cc(=O)n(C)c2nc(Nc3ccc(N4CCN(C)CC4)c(NC(=O)CC)c3)ncc12 [Example 51, N-[5-({5-Ethynyl-8-methyl-7-oxopyrido[2,3-d]pyrimidin-2-yl}amino)-2-(4-methylpiperazin-1-yl)phenyl]propanamide]
Second: C#Cc1cc(=O)n(C)c2nc(Nc3ccc(N4CCN(C)CC4)c(NC(=O)CC4CCCC4)c3)ncc12 [Example 217, 2-Cyclopentyl-N-(5-((5-ethynyl-8-methyl-7-oxo-7,8-dihydropyrido[2,3-d]pyrimidin-2-yl)amino)-2-(4-methylpiperazin-1-yl)phenyl)acetamide]
The IC50 of the first is lower: < 20 nM for the first, 20 to 100 nM for the second.

First: C#Cc1cc(=O)n(C2CCNC2)c2nc(Nc3ccc(N4CCN(C)CC4)cc3)ncc12 (stereo not drawn) [Example 106, 5-ethynyl-2-{[4-(4-methylpiperazin-1-yl)phenyl]amino}-8-(pyrrolidin-3-yl)pyrido[2,3-]pyrimidin-7-one]
Second: C#Cc1cc(=O)n([C@H]2CC[C@@H](NC(=O)Cc3cn[nH]c3)CC2)c2nc(Nc3ccc(N4CCN(C)CC4)cc3)ncc12 [Example 91, 2-(1H-Pyrazol-4-yl)-N-[(1s,4s)-4-(5-ethynyl-2-{[4-(4-methylpiperazin-1-yl)phenyl]amino}-7-oxopyrido[2,3-d]pyrimidin-8-yl)cyclohexyl]acetamide]
The IC50 of the first is higher: 100 to 1000 nM for the first, < 20 nM for the second.

First: C#Cc1cc(=O)n2c3nc(ncc13)Nc1cccc(c1)OC/C=C\C2 [Example 187, (Z)-1^5-ethynyl-1^7,1^8-dihydro-4-oxa-2-aza-1(2,8)-pyrido[2,3-d]pyrimidina-3(1,3)-benzenacyclooctaphan-6-en-1^7-one]
Second: C#Cc1cc(=O)n(C2CCCC2)c2nc(Nc3ccccc3OC)ncc12 [Example 74, 8-Cyclopentyl-5-ethynyl-2-((2-methoxyphenyl)amino)pyrido[2,3-d]pyrimidin-7(8H)-one]
The IC50 of the first is lower: 20 to 100 nM for the first, 100 to 1000 nM for the second.

For `C#Cc1cc(=O)n(-c2ccccc2)c2nc(Nc3ccc(N4CCC(N5CC(CO)C5)CC4)cc3)ncc12` [Example 28], the IC50 was < 20 nM.
